From the supplement of paper PMC4166925
± gives the standard deviation of the averaged measurements. Whole data set: some 33,000 sequences, median “E-score (dimensionless, -0.5 to 0.5)” near -0.049, cut for the highest 2% near 0.37. The list shows a part of the results.

test system: T1, PmTbr T-box DNA-binding domain (GST fusion); assay: PBM E-score of 8-mer (E-score (dimensionless, -0.5 to 0.5)); Tbr is Tbrain of the sea star Patiria miniata (Pm) or the sea urchin Strongylocentrotus purpuratus (Sp); higher = stronger binding preference; most listed sequences are background and not binding sites; details: the construct has about 5 more residues each side
T1 sequence: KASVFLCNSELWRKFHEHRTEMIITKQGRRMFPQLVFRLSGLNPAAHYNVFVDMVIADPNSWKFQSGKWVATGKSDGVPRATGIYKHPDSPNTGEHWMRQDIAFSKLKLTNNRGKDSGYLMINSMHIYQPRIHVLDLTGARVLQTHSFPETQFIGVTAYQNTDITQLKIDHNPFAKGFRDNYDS
Method: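 Universal protein-binding microarray (Agilent AMADID 016060, 60-bp probes with a 35-bp variable region) incubated with 200 nM GST-fused Patiria miniata Tbr T-box DNA-binding domain (residues 272-466) in PBS pH 7.5. Scored for every ungapped 8-mer (given with its reverse complement) by the Universal PBM Analysis Suite as E-score (modified Wilcoxon-Mann-Whitney enrichment, range -0.5 to 0.5; >0.45 counts as bound) and Z-score of median probe intensity. Two replicate arrays (datasets 1 and 2).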
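Further: 200 nM protein in PBS on universal arrays averaged over duplicate arrays.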

Sequence | PBM E-score of 8-mer
GCGACCTA | -0.0636 ± 0.051
AGGACAAC | -0.174 ± 0.1
GCTGGTGA | 0.0996 ± 0.0097
CCTAAGCG | -0.0363 ± 0.022
GAAATTTA | -0.13 ± 0.042
ATAAAAGG | 0.04207 ± 2.8e-05
GGAAAGAC | 0.045 ± 0.021
TCTATTAA | -0.084 ± 0.023
AGTCCAAG | -0.366 ± 0.039
GAGTCGGA | -0.263 ± 0.045
GGTGCAAC | 0.299 ± 0.033
AGCTCGCG | 0.291 ± 0.015
ACGCCGAG | 0.0516 ± 0.0092
AGGACGCG | -0.0478 ± 0.068
CACGACCG | -0.0865 ± 0.01
AAAAGACG | -0.115 ± 0.073
ACGTCTGC | -0.0774 ± 0.02
ACAAGTTA | 0.129 ± 0.0067
CAGTAGAG | 0.0828 ± 0.0074
CTGGCAAG | -0.0588 ± 0.035
AGCTTATG | -0.231 ± 0.017
ATTATCTC | 0.074 ± 0.024

Sequence | PBM E-score of 8-mer
TAAGGAAA | -0.1039 ± 0.00074
CGGTTCGA | -0.0167 ± 0.018
AGAGCCGG | -0.259 ± 0.087
ATTGTTAC | 0.194 ± 0.057
GGCTGGTA | -0.198 ± 0.088
CCGATTCC | -0.294 ± 0.067
CCATCGGG | -0.0661 ± 0.0044
AGGTGCAG | 0.307 ± 0.015
AGTTGTGC | 0.0449 ± 0.04
ATACTGGC | -0.143 ± 0.011
GATCCACC | 0.0196 ± 0.009
AACGTGGT | 0.0187 ± 0.012
GAATTCTC | 0.159 ± 0.056
AGAGCCCA | -0.145 ± 0.028
GAAAGCCC | -0.23 ± 0.092
ATGAAGAA | -0.0724 ± 0.011
GCTCATAC | -0.037 ± 0.085
ATCAAGCA | -0.105 ± 0.11
TATGACGA | -0.0839 ± 0.034
CTGCGGTC | -0.0962 ± 0.029
AGTCTATG | -0.314 ± 0.026
CCTTAAAA | -0.0561 ± 0.019

Sequence | PBM E-score of 8-mer
ATCCATAG | -0.255 ± 0.025
CCAGTATA | -0.0676 ± 0.025
CCCTGGTC | -0.0307 ± 0.0028
CCCAATGC | -0.297 ± 0.0096
ACCTGAAT | 0.165 ± 0.043
GCGCGGAC | 0.21 ± 0.056
GTAATTTA | -0.0571 ± 0.089
CGTTTTAA | 0.0535 ± 0.015
ACCAAAGG | -0.0856 ± 0.047
CTAACTCA | 0.0526 ± 0.011
ATCGAACA | -0.0797 ± 0.051
CTAGATTC | 0.139 ± 0.039
CGGATGGC | -0.158 ± 0.021
ACATTTTA | 0.101 ± 0.12
GCGTTCGA | 0.0996 ± 0.078
ACTCCACA | 0.144 ± 0.064
ATTCGGGC | -0.0615 ± 0.091
CTACTCAC | 0.0932 ± 0.0048
AACGGTTG | 0.0612 ± 0.024
TCCCTAAA | -0.0831 ± 0.026
GAGTATAA | -0.0162 ± 0.085
AGACGGAA | -0.052 ± 0.0067

Sequence | PBM E-score of 8-mer
ACGAATTA | -0.0448 ± 0.09
AAAGTGAA | -0.00138 ± 0.15
AAGTGACT | 0.092 ± 0.006
CCTGGTGA | 0.101 ± 0.0051
CAATCTCC | -0.056 ± 0.038
AACCCGAC | 0.162 ± 0.0046
GGCGCAAA | 0.255 ± 0.017
AGCCCAAA | -0.246 ± 0.1
CCCGCCAA | 0.161 ± 0.0064
GCCAGAGC | -0.249 ± 0.03
CGGGCGGC | -0.0379 ± 0.033
ACAGCAGT | -0.0497 ± 0.058
CGTGGGTC | 0.056 ± 0.08
AGAGGGAC | -0.0717 ± 0.0033
CGAAGCGA | 0.0214 ± 0.12
AAACTCAA | -0.0977 ± 0.039
ATGTTTCC | -0.148 ± 0.077
CAGTCAGC | -0.0819 ± 0.0062
CTTCAAAA | -0.0156 ± 0.0011
AAAATGGA | -0.0268 ± 0.11
